# Results taken from PubChem BioAssay AID686979 (National Center for Advancing Translational Sciences (NCATS), 2013).
# Values joined by “and” are separate entries in the source; they are usually repeats but may differ in a detail not shown here. Equal values may be shown once. Among all 420,000 compounds or so, about 50,000 (12%) were called active. This list was built around the results that the source calls inconclusive (neither active nor inactive); the mix of calls is not that of the screen. The call rests on the fitted dose curve; in most records, active means well fitted inhibition curve with a large enough effect; inconclusive means small, poorly fitted or top-dose-only effect; inactive means flat fitted curve, though single readings scatter. A potency beside an inconclusive call is a rough fit, not a confirmed value.
# Assay: qHTS for Inhibitors of human tyrosyl-DNA phosphodiesterase 1 (TDP1): qHTS in cells in presence of CPT; further: nearly all actives have a fitted effect of over 55% in size
# Details: chicken DT40 Tdp1-/-;hTDP1 cells + 20 nM CPT, ATP luminescence, 48 h; activity change, negative = growth inhibition: at 46.2 µM (top of the series) unless noted
# In short: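 Chicken DT40 Tdp1-/- cells stably complemented with human TDP1 were seeded at 400 cells/well in medium containing 20 nM camptothecin, exposed to pin-transferred compounds, and grown at 37 °C for at least 48 hr. Viability was read as ATP luminescence.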
# On the % scale 0 is the no-effect control and ±100 the full control effect; potency means the concentration at half of the fitted maximal effect; tags describe the fitted curve by direction and shape.
SMILES,Potency,"activity change, negative = growth inhibition"
Cc1sc(NC(=O)C2=COCCO2)nc1-c1ccc(Br)cc1,"inconclusive: 29.1 µM [inhibitor, single point]",
CCN(CC)S(=O)(=O)c1ccc(Cl)c(NC(=O)c2ccccc2C)c1,"inconclusive: 23.1 µM [inhibitor, single point]",
CC1CN(C(=O)N2CCC(C(=O)NCc3ccccc3F)CC2)c2cc(Cl)ccc2O1 (configuration not stated),active: 20.6 µM,
O=C(N/C(=C/c1cccs1)C(=O)N1CCOCC1)c1cccs1,,inactive: 7.08%
CCOc1cc(NC(=S)NCC2CCCO2)c(OCC)cc1NC(=O)c1cccc(C)c1 (configuration not stated),"inconclusive: 11.6 µM [inhibitor, partial curve]",
CCCOc1ccc(C(=O)NNC(=S)NC(=O)c2cc(-c3ccccc3)nc3ccccc23)cc1,"inconclusive: 23.1 µM [inhibitor, single point]",
CCCNC(=O)c1ccc2c(=O)c(O)c(-c3ccsc3)[nH]c2c1,"inconclusive: 29.1 µM [inhibitor, single point]",
Cc1nc2c(sc3nc4c(cc32)COC(C)(C)C4)c(=O)o1,,inactive: -18.1%
COc1cc2c(cc1OC)C(c1ccccc1)N(C(=O)c1ccco1)CC2 (configuration not stated),active: 20.6 µM,
Cc1cnc(NC(=O)CSc2ncc(-c3ccccc3)n2Cc2ccco2)s1,active: 18.4 µM,
CCN1CCc2c(OCC(=O)N3N=C(c4cccs4)CC3c3ccc(F)cc3)cccc2C1=O (configuration not stated),active: 20.6 µM,
COc1ccccc1-c1cn(CC[C@H]2CC[C@@H](NS(=O)(=O)c3ccccc3C)[C@@H](CO)O2)nn1,"inconclusive: 23.1 µM [inhibitor, single point]",
O=c1cc(CN2CCN(C/C=C/c3ccccc3)CC2)c2cc(O)c(-c3ccccc3)cc2o1,active: 18.4 µM,
COCCNC(=O)C1(C)CCCN(C(=O)COc2ccccc2)C1 (configuration not stated),active: 20.6 µM,
COc1ccc(-c2cc(C3CCN(c4cc(Cl)nc(N)n4)CC3)[nH]n2)cc1,active: 23.1 µM,
CCCCN(C(=O)Cc1cccs1)c1nnc(-c2cccnc2)s1,"inconclusive: 29.1 µM [inhibitor, single point]",
Cn1c(O)c(/C=N/NC(=O)c2cc3ccccc3cc2O)c2ccccc21,active: 16.4 µM,
Cc1nc2c(OCC(=O)C(C)(C)C)cccn2c1N(C)Cc1cccs1,"inconclusive: 18.4 µM [inhibitor, partial curve, poor fit]",
COc1ccc(NC(=O)c2ccc(Cc3ccc(C)cc3)o2)cc1,"inconclusive: 13 µM [inhibitor, partial curve, poor fit]",
COCCn1c(=O)c(-c2ccc(F)cc2)nc2cnc(OC)nc21,,inactive: -21.6%
COc1c2c(cc3c1C(CC(O)Cc1ccccc1)N(C)CC3)OCO2 (configuration not stated),"inconclusive: 18.4 µM [inhibitor, single point]",
O=C(NCc1ccccc1Cl)c1ccc2c(c1)NC(=O)C(CS(=O)(=O)Cc1ccc(Cl)cc1)N2 (configuration not stated),"inconclusive: 29.1 µM [inhibitor, single point]",
CCC(C)[C@H]1CNC(=S)N1CCc1cccc2ccccc12 (some centres not stated),"inconclusive: 20.6 µM [inhibitor, single point]",

SMILES,Potency,"activity change, negative = growth inhibition"
O=C(Nc1ccc(F)c(F)c1)C(c1ccccc1)N1Cc2ccccc2C1=O (configuration not stated),"inconclusive: 29.1 µM [inhibitor, single point]",
COc1ccc(C2Nc3ccccc3C(=O)N2Cc2ccco2)cc1COc1ccc(NC(C)=O)cc1 (configuration not stated),"inconclusive: 22.4 µM [inhibitor, single point] and inconclusive: 29.1 µM [inhibitor, single point]",
COc1ccc(C(C)=O)cc1COC(=O)c1c(C)nn(-c2ccccc2)c1C,"inconclusive: 29.1 µM [inhibitor, single point]",
O=C(COC(=O)c1cc(S(=O)(=O)N2CCOCC2)ccc1O)NCC1CCCO1 (configuration not stated),,inactive: 4.09%
O=C(C1=NNCC1c1ccccc1)C1OC1c1ccccc1 (configuration not stated),,inactive: -18.1%
O=C(NCc1ccco1)C(c1ccccc1)N(C(=O)Cc1cccs1)c1ccccc1 (configuration not stated),"inconclusive: 29.1 µM [inhibitor, single point]",
CCOC(=O)NC(=O)C(/C=N/c1sccc1C(=O)OC)=C(\C)O,"inconclusive: 29.1 µM [inhibitor, single point]",
c1ccc(CCNc2ccccn2)nc1,,inactive: -0.353%
Cc1cccc(C)c1NC(=O)CCCSc1nnc(-c2ccc(Cl)cc2)n1-c1ccccc1,active: 23.1 µM,
CCN(CC)CCNC(=O)c1cc2c(-c3cccc(OC)c3)nn(C)c2s1,"inconclusive: 29.1 µM [inhibitor, single point]",
CCOc1ccc(-c2cc(C(=O)N3CCN(c4ccccn4)CC3)c3ccccc3n2)cc1,active: 3.98 µM and active: 5.62 µM and active: 5.8 µM,
Cc1cc(C)c2oc(-c3ccc(C)c(NC(=S)NC(=O)/C=C/c4ccco4)c3)nc2c1,"inconclusive: 23.1 µM [inhibitor, partial curve]",
Cc1nn(C(C)C(=O)NCc2ccco2)c(=O)c2nn(-c3ccccc3)c(C)c12 (configuration not stated),inactive,
CCc1ccc(-c2nc(CS(=O)CC(=O)NCc3ccco3)c(C)o2)cc1 (configuration not stated),"inconclusive: 18.4 µM [inhibitor, single point]",
O=C(CCSc1ccccc1)N1CCN(c2ccccc2F)CC1,,inactive: -4.21%
Cc1ccc2[nH]cc(C(c3ccccc3)c3ccc(Cl)s3)c2c1 (configuration not stated),"inconclusive: 29.1 µM [inhibitor, single point]",
CC1=CC(C)(C)NC(=S)N1c1ccc([N+](=O)[O-])cc1,active: 29.1 µM,
CC(C)CCNC(=O)Cn1c2c(c(-c3ccccc3Cl)cc1=O)CCC2,,inactive: -22.9%
CC(O)(CS(=O)(=O)Cc1ccccc1)C(=O)Nc1ccc(C(F)(F)F)cc1 (configuration not stated),,inactive: -5.97%
COc1ccc(-c2sc3ccc(OC)cc3c2C#Cc2cncn2C)cc1,"inconclusive: 16.4 µM [inhibitor, single point]",
CCOC(=O)C1=C(SCC)c2cc3c(n2C1=O)CCCC3,"inconclusive: 23.1 µM [inhibitor, partial curve]",
CCCCN(C)C(=O)CSc1nc(NCc2ccc(OC)cc2)c2ccccc2n1,"inconclusive: 23.1 µM [inhibitor, single point]",
COc1ccc([C@H]2C=C3CN(C(=O)OC(C)(C)C)S(=O)(=O)[C@H]3C[C@H]2OC(=O)c2ccc(C(F)(F)F)cc2)cc1,"inconclusive: 29.1 µM [inhibitor, single point]",

SMILES,Potency,"activity change, negative = growth inhibition"
O=C(NNC(=S)Nc1cccc(Cl)c1)c1ccccc1OC(F)F,"inconclusive: 18.4 µM [inhibitor, single point]",
CCOc1ccccc1NC(=O)Cn1c(=O)n(CCCC(=O)NCc2ccc(C)cc2)c(=O)c2ccccc21,"inconclusive: 29.1 µM [inhibitor, single point]",
COc1ccccc1CCNC(=O)C(=O)NCC1OCCN1S(=O)(=O)c1ccc(OC)c(OC)c1 (configuration not stated),"inconclusive: 23.1 µM [inhibitor, single point]",
COc1cc(NC(=O)CN(C)CCOc2ccccc2)c(C)cc1[N+](=O)[O-],"inconclusive: 29.1 µM [inhibitor, single point]",
Cc1cc(C(=O)NNC(=S)NCC(C)C)cs1,"inconclusive: 25.9 µM [inhibitor, single point]",
COc1ccc2[nH]c3c(c2c1)CCN1C(=O)C(CC(=O)NCCc2ccccn2)C[C@H](C(=O)N2CCCCC2)[C@@]31C (some centres not stated),,inactive: -20%
CCc1n(CC(O)COCc2ccccc2)c2ccccc2[n+]1C (configuration not stated),"inconclusive: 29.1 µM [inhibitor, single point]",
COc1ccc(NC(=O)C(NS(=O)(=O)c2cccc3nsnc23)C(C)C)cc1OC (configuration not stated),,inactive: -6.59%
CCCn1cnc2scc(-c3ccc(C)c(C)c3)c2c1=O,"inconclusive: 23.1 µM [inhibitor, partial curve, poor fit]",
O=C1NC(Cc2ccccc2)c2nc3cc(F)c(F)cc3c(=O)n2-c2cc3ccccc3cc21 (configuration not stated),active: 23.1 µM,
COc1ccccc1N=Cc1nc(-c2ccccc2)oc1OC(C)=O,"inconclusive: 29.1 µM [inhibitor, single point]",
CCCc1cc(=O)[nH]c(SCC(=O)N2CC3(C)CC2CC(C)(C)C3)n1 (configuration not stated),,inactive: 2.35%
CCN(Cc1ccncc1)C(=O)c1cc(COc2ccc(F)cc2F)on1,"inconclusive: 29.1 µM [inhibitor, single point]",
COCCNC(=O)C1(C)CCCN(Cc2ccc(C)c3ccccc23)C1 (configuration not stated),active: 20.6 µM,
CCOC(=O)c1c(CSc2ccccc2)n(C)c2cc(Br)c(O)c(CN(C)C)c12,active: 20.6 µM,
COc1ccc(S(=O)(=O)Nc2cccc(-c3ccc(N4CCCCC4)nn3)c2)cc1F,"inconclusive: 29.1 µM [inhibitor, single point]",
Clc1cccc(CNc2ccn3nc(-c4cccc(Cl)c4)cc3n2)c1,"inconclusive: 29.1 µM [inhibitor, single point]",
CC(C)(C)C(=O)NC(=S)NNC(=O)c1ccc(Cl)cc1Cl,"inconclusive: 29.1 µM [inhibitor, single point]",
O=C(Nc1cccc(Cl)c1)c1nc[nH]c1C(=O)NCCN(CCNC(=O)c1[nH]cnc1C(=O)Nc1cccc(Cl)c1)CCNC(=O)c1[nH]cnc1C(=O)Nc1cccc(Cl)c1,"inconclusive: 29.1 µM [inhibitor, single point]",
CCCCn1c(SCC(N)=O)nc2c(sc3ccccc32)c1=O,"inconclusive: 2.31 µM [inhibitor, partial curve, poor fit]",
CCc1nc2cc(C(=O)N3CCC[C@H]3C(=O)OC)cc(NC(=O)c3ccccc3OC)c2n1C,,inactive: 18.5% [at 9.04 µM]
